# Several values for one entry are separate records, joined by “and”; a condition that tells them apart may be missing. Equal entries are not always repeated. Inconclusive means that the source gave no clear call. Such entries were picked first, then a sample of the others. For part of these data: Where the call is inconclusive, the potency comes from a doubtful curve fit. More than one record can exist for a structure, and the calls need not agree. Activity calls are given as the source filed them. Unless noted, the call rests on the fitted dose curve.
# Key:
# [1] = qHTS assay to identify small molecule antagonists of the estrogen related receptor signaling pathway with the pleiotropic PPARgamma coactivator (PGC) from Tox21 10K library - cell viability counter screen (AID 1224840; active means well fitted cell-killing curve with a large enough effect in the repeat runs, not every such curve was filed as active; inconclusive means weak or mixed curves, or effect the other way; inactive means no such curve, though single readings can be large or run the other way; further: nearly all actives have a fitted effect of over 40% in size; further: potency means the concentration at half of the fitted maximal effect)
# Procedure, shortened: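 Compounds in DMSO, alongside positive and negative controls, were pinned onto PGC/ERR cells (2,000 per well). Exposure lasted 17.5 hours at 37 C, followed by a 30-minute CellTiter-Fluor incubation and fluorescence reading.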
# [2] = target: Thyrotropin receptor (Homo sapiens) (UniProt P16473); test: qHTS assay to identify small molecule agonists of the thyroid stimulating hormone receptor (TSHR) signaling pathway (AID 1224843); conditions: TSHR-HEK293 cells, cAMP HTRF, agonist mode, 30 min; activation: at 92.4 µM (top of the series) unless noted; further: nearly all actives have a fitted effect of over 45% in size; further: potency means the concentration at half of the fitted maximal effect; on activation: on the % scale 0 is the no-effect control and ±100 the full control effect
# Procedure, shortened: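 Steps: seed 800 TSHR-HEK293 cells per well; add test compound and hold 30 min at ambient temperature; dispense cAMP-d2 then anti-cAMP cryptate; incubate 1 h at ambient; measure fluorescence intensity.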
# [3] = qHTS assay to identify small molecule agonists of H2AX (AID 1224845; active means well fitted activation curve with a large enough effect in the signal ratio in the repeat runs, not every such curve was filed as active; inconclusive means weak or mixed curves; the % refers to the signal ratio; further: potency means the concentration at half of the fitted maximal effect); conditions: CHO-K1 phospho-H2AX Ser139 HTRF, 3 h; activation (H2AX phosphorylation): at 154 µM (top of the series) unless noted
# Procedure, shortened: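 Wild-type CHO-K1 cells, plated overnight, exposed 3hr at 37C to 15 concentrations (0.76% DMSO final). Lysed, then HTRF anti-pH2AX (S139) cryptate and anti-H2AX-d2 antibodies, 24 hr room temperature; 665/620 nm emission read.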
# [4] = qHTS assay to identify small molecule agonists of the hypoxia (HIF-1) signaling pathway - cell viability counter screen (AID 1224844); further: nearly all actives have a fitted effect of over 50% in size; further: potency means the concentration at half of the fitted maximal effect
# Procedure, shortened: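 Luminescent ATP content (CellTiter-Glo, 30 min, room temperature) served as the viability measure in HRE-bla ME-180 cells exposed to compounds for 17 hrs in low-serum medium (0.5% dialyzed FBS).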
# [5] = qHTS assay to identify small molecule agonists of the hypoxia (HIF-1) signaling pathway (AID 1224846; active means well fitted activation curve with a large enough effect in the signal ratio in the repeat runs, not every such curve was filed as active; inconclusive means weak or mixed curves; the % refers to the signal ratio; further: potency means the concentration at half of the fitted maximal effect; on activation: on the % scale 0 is the no-effect control and ±100 the full control effect); conditions: HRE-bla ME-180 cells, beta-lactamase ratio, 17 h; activation: at 76.8 µM (top of the series) unless noted
# Procedure, shortened: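 Measured by blue/green FRET after loading CCF4-AM: beta-lactamase expressed from a hypoxia response element in ME-180 cells. Test agents were delivered in DMSO and left 17 hrs; cells had been plated 5 hrs earlier in low-serum (0.5% dialyzed FBS) medium.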
# [6] = target: Nuclear receptor subfamily 1 group I member 3 (Homo sapiens) (UniProt Q14994); test: qHTS assay to identify small molecule agonists of the constitutive androstane receptor (CAR) signaling pathway (AID 1224839; active means well fitted curve in the direction sought with a large enough effect in the repeat runs; inconclusive means weak or mixed curves; inactive means no such curve, though single readings can be large; an effect the other way counts as inactive or inconclusive; further: potency means the concentration at half of the fitted maximal effect; nearly all actives have a fitted effect of over 15% in size)
# Procedure, shortened: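 In this screen, CAR-driven CYP2B6 promoter activity is measured by luminescence in HepG2-CYP2B6-hCAR cells after 24 h with test compounds and 0.75 uM PK11195 (final concentration).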
# [7] = qHTS assay to identify small molecule agonists of H2AX - cell viability counter screen (AID 1224847); further: nearly all actives have a fitted effect of over 30% in size; further: potency means the concentration at half of the fitted maximal effect
# Procedure, shortened: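 Read-out: CellTiter-Glo luminescence, 30 min RT. Cells: wild-type CHO-K1, 1000/well, 10% FBS, plated overnight at 37C. Treatment: 15 concentrations, 3 hr, 37C, 0.76% DMSO.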
# [8] = qHTS assay to identify small molecule antagonists of the estrogen related receptor signaling pathway with the pleiotropic PPARgamma coactivator (PGC) from Tox21 10K library (AID 1224841; call rule not given here; further: actives are mostly falling curves and most rising ones were filed inactive; nearly all actives have a fitted effect of over 50% in size; further: potency means the concentration at half of the fitted maximal effect)
# Procedure, shortened: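 Compound exposure ran 18 hours at 37 C in PGC/ERR cells (2,000/well) that had first rested 6 hours in a 37 C/5% CO2 incubator. Luciferase activity was then detected with One-Glo after a 30-minute room-temperature step.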
# [9] = qHTS assay to identify small molecule agonists of the estrogen related receptor signaling pathway with the pleiotropic PPARgamma coactivator (PGC) from Tox21 10K library (AID 1224842; active means well fitted curve in the direction sought with a large enough effect in the repeat runs; inconclusive means weak or mixed curves; inactive means no such curve, though single readings can be large; an effect the other way counts as inactive or inconclusive; further: on the % scale 0 is the no-effect control and ±100 the full control effect; nearly all actives have a fitted effect of over 15% in size)
# Procedure, shortened: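 PGC/ERR reporter cell line, 2,000 cells per well, incubated 6 h at 37 C before 23 nL compound in DMSO was added. After 18 h at 37 C, One-Glo luminescence read following 30 min at room temperature.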
# Tags describe the fitted curve by direction and shape or compound fluorescence and quenching.
# Sequence of UniProt Q14994 (Q14994 whole entry, looked up): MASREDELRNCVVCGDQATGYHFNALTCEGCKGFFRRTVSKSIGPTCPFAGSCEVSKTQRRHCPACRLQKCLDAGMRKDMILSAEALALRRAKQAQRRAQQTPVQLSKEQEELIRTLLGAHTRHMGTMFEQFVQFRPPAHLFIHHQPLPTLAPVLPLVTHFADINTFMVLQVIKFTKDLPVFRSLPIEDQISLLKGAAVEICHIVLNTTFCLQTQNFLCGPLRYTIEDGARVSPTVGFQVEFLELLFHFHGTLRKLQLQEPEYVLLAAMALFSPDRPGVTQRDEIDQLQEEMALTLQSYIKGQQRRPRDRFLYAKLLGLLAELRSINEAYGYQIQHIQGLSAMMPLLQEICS
# Sequence of UniProt P16473 (P16473 whole entry, looked up): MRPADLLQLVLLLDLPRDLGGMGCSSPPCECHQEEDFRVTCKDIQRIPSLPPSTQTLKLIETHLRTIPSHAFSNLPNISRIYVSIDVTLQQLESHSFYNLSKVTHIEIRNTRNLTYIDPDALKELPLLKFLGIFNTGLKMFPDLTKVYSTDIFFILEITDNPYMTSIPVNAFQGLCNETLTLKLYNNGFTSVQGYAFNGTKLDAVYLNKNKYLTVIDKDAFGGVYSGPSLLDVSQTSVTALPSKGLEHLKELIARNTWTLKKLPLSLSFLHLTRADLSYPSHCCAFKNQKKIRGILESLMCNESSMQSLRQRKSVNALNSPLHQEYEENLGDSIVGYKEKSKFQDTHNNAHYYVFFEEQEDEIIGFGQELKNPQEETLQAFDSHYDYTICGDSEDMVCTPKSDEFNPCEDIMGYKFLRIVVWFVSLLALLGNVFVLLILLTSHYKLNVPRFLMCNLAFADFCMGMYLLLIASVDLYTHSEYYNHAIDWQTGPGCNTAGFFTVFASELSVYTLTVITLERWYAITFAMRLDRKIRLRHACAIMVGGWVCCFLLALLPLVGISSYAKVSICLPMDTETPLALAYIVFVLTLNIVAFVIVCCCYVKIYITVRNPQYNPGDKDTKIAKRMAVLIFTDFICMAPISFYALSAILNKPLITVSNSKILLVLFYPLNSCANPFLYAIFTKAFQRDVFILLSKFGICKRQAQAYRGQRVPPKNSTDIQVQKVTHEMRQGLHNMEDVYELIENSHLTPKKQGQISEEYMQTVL
structure (smiles),measurement,setting,value
CCN(CC)c1c([N+](=O)[O-])cc(C(F)(F)F)c(N)c1[N+](=O)[O-],Potency,[1],"inconclusive: 48.6 µM [cytotoxic, partial curve]"
same,Potency,[2],active: 13.7 µM
same,Potency,[3],"inconclusive: 113 µM [activator, single point]"
[O]=[Cr][O][Cr]=[O],Potency,[1],inactive
CCOCN(C(=O)CCl)c1c(C)cccc1CC,Potency,[1],inconclusive: 68.6 µM [cytotoxic]
same,Potency,[2],active: 8.15 µM
same,Potency,[4],"inconclusive: 54.9 µM [cytotoxic, single point]"
same,Potency,[3],"inconclusive: 120 µM [activator, single point] and inconclusive: 127 µM [activator, single point]"
same,Potency,[5],"inconclusive: 13 µM [rising, full curve, poor fit]"
c1ccc(N=Nc2ccccc2)cc1,Potency,[6],"inconclusive: 48.6 µM [activator, partial curve]"
same,Potency,[7],inactive
COc1ccc(OC)c(CC(C)N)c1 (stereo not given),Potency,[1],inactive
same,Potency,[2],inactive
C#CCC1=C(C)C(OC(=O)C2C(C=C(C)C)C2(C)C)CC1=O (stereo not given),Potency,[1],"inconclusive: 48.2 µM [cytotoxic, partial curve, poor fit]"
same,Potency,[8],"inconclusive: 34.1 µM [falling, partial curve]"
same,Potency,[2],active: 60.7 µM
same,Potency,[7],"inconclusive: 126 µM [cytotoxic, single point]"
Nc1ccc(-c2ccc(N)c(Cl)c2)cc1Cl,Potency,[1],"inconclusive: 25.5 µM [cytotoxic, partial curve, poor fit] and active: 27.3 µM"
same,activation,[2],inconclusive: -40.8% and inconclusive: -39.8%
same,Potency,[4],"inactive and inconclusive: 195 nM [cytotoxic, full curve, poor fit]"
same,Potency,[5],inconclusive: 57.5 µM and inconclusive: 54.9 µM
same,Potency,[7],"inconclusive: 127 µM [cytotoxic] and inconclusive: 118 µM [cytotoxic, single point]"
O=Cc1ccc2c(c1)OCO2,Potency,[1],inactive
Nc1ccc([N+](=O)[O-])cc1N,Potency,[1],"inconclusive: 21.7 µM [cytotoxic, partial curve]"
same,Potency,[2],inconclusive: 48.6 µM
same,activation,[2],inconclusive: 27.1%
same,Potency,[3],"inconclusive: 101 µM [falling, partial curve] and inconclusive: 89.8 µM [falling, partial curve]"
same,Potency,[5],inconclusive: 24.5 µM [full curve] and inactive
c1ccc2c(c1)OCC(C1=NCCN1)O2 (stereo not given),Potency,[1],active: 21.1 µM
same,Potency,[2],active: 15 µM
same,Potency,[4],"inconclusive: 10.7 µM [rising, partial curve, poor fit]"
same,Potency,[3],active: 49.2 µM
same,Potency,[7],"inconclusive: 24.7 µM [rising, full curve]"
Nc1ccc(Cl)cc1,Potency,[6],"inconclusive: 68.6 µM [activator, single point] and inconclusive: 55.4 µM [activator, partial curve, poor fit]"
same,Potency,[7],"inconclusive: 18.2 µM [rising, partial curve, poor fit]"
CC(=O)/C=C/c1ccc2c(c1)OCO2,Potency,[1],inconclusive: 61.4 µM [cytotoxic]
same,Potency,[8],"inconclusive: 27.4 µM [falling, full curve, poor fit]"
same,activation,[2],inconclusive: 11.9%
same,Potency,[3],"inconclusive: 127 µM [falling, single point]"
same,Potency,[7],"inconclusive: 127 µM [cytotoxic, single point]"
COP(=O)(OC)Oc1ccc([N+](=O)[O-])cc1,Potency,[1],"inconclusive: 30.6 µM [cytotoxic, partial curve, poor fit]"
same,Potency,[9],inactive
same,Potency,[5],inconclusive: 24.5 µM [partial curve]
CCC(C)Nc1c([N+](=O)[O-])cc(C(C)(C)C)cc1[N+](=O)[O-] (stereo not given),Potency,[1],inactive
same,Potency,[8],inactive
same,Potency,[2],"inconclusive: 30.6 µM [inhibitor, partial curve]"
same,Potency,[7],"inconclusive: 56.6 µM [cytotoxic, partial curve]"
CC(c1ccccc1)(c1ccc(O)cc1)c1ccc(O)cc1,Potency,[1],"inconclusive: 68.6 µM [cytotoxic, single point]"
same,Potency,[8],active: 34.4 µM
same,Potency,[2],active: 15.4 µM
same,Potency,[4],active: 54.9 µM
same,Potency,[3],"inconclusive: 127 µM [activator, single point]"
same,Potency,[5],inconclusive: 54.9 µM
same,Potency,[7],"inconclusive: 113 µM [cytotoxic, single point]"
CC(C)OC(=S)S,Potency,[1],"inconclusive: 54.5 µM [cytotoxic, partial curve]"
same,activation,[2],inconclusive: -12.4%
same,Potency,[4],"inconclusive: 21.9 µM [rising, partial curve]"
same,Potency,[3],active: 35.7 µM
same,Potency,[5],"inconclusive: 15.5 µM [falling, full curve]"
same,Potency,[7],"inconclusive: 40.1 µM [cytotoxic, full curve, poor fit]"
